# From PubChem BioAssay (NCI)
#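 All cell lines were grown in 96-well plates and treated with compound for 48 hours. TGI: concentration producing complete growth inhibition.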
# Tested on: NCI-H322M lung
# Assay: DTP human tumour cell line panel, 48 h
compound,measurement,value
Cc1nnc2n1N=C(c1ccccc1)C(c1ccccc1)S2 (stereo unspecified),TGI,> 100 µM
